Measurements reported in the supplement of paper PMC11417369.
± gives the standard deviation of the averaged measurements. The list shows a part of the results.

system: PfAP2-LT AP2 domain (GST-tagged); experiment: gcPBM binding intensity (ln(normalized median fluorescence intensity)); higher = stronger DNA binding
Summary of the method: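 GST-tagged P. falciparum DNA-binding domains produced in E. coli were incubated for 1 h on an Agilent 4 × 180k array of primer-extended double-stranded 36-bp intergenic genomic probes with negative controls. Binding intensity is the highest Masliner-normalised natural-log median intensity across replicate spots of either probe orientation, with bound protein detected by Alexa488 anti-GST antibody at 488 nm.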

Sequence	gcPBM binding intensity (ln)
ATACATAAATTTAGAAGTACATAACAAATTTTTAAA [XGTACX_site7448]	8.66 ± 0.45
AATCAAAACAACAATAGTACATAAAAAAACAAAACA [XGTACX_site4181]	8.97 ± 0.49
ATTAAATGTTATATTTGTACATATTATATATATATA [XGTACX_site5095]	8.75 ± 0.45
TCCATATTTGTTCACACACACACATATTTATATATA [CACACA_site3570]	9.56 ± 0.28
TTTGTTATTTTTTATTGTACTTTTTTTCTTTCATAA [XGTACX_site4302]	8.75 ± 0.45
TTCATTTTTTATTATAGTACACATAATATTTGCAGA [XGTACX_site4032]	8.66 ± 0.51
TATATATATATGTGCGTGCACGTTACCTTGCTGTTT	9.69 ± 0.23
TTTCCAAATACAACTACACACAAACAAAAGTTATAT [CACACA_site6544]	9.04 ± 0.42
AAATTTAACAACTTCAAACACACAATATATATATAT [CACACA_site2092]	9.06 ± 0.34
TATAATAATAATTATACATGCATGAATATTTATATG [TGCATGCA_site811]	8.64 ± 0.34
TCCTATATATAAATATTAATATATATGTATTGGTAT [GTGCAC_negctrl_site23]	8.66 ± 0.49
TTTCTTATTTTGGATTGTACGTATATTTTTCATTTT [XGTACX_site224]	9.01 ± 0.48
AAAAAAAAAAAAAACACACACACAAATACAAATGGT [CACACA_site1721]	9.85 ± 0.23
TTATATTTCAATCATATTGTCACAAGTCATATTTAT [GTGCAC_negctrl_site366]	8.66 ± 0.45
TTACACATGAGAAAATGTACATATAATAAAATATGT [XGTACX_site904]	8.93 ± 0.38
AACAAAAAAAAAAAAAAAAAAAAAAAAAAAAAAATG [CACACA_negctrl_site1127]	8.45 ± 0.4
AATAAAAAAAATAGCATACACACATATATACATATA [CACACA_site659]	8.96 ± 0.4
ATGGACAAGTTAAACGCACACAAATATATACACCCA [CACACA_site8478]	9.64 ± 0.52
ATGTTCTTATTATTGGTGCAAGAATACACAAGAAAA	8.69 ± 0.47
TATTGTTCTTATTTAGTGCATATATAATATAATATA [GTGCAC_site9827]	8.53 ± 0.4
AACACATAATAAAATTGTACCCAACATTTCTTTTGA [XGTACX_site8061]	8.73 ± 0.47
TATGTGAATAAATAAGCACACATAAACACATATATA [CACACA_site9359]	9.4 ± 0.34
TTTTGAAGCTTTAAAACATATATATATATATATATA [CACACA_negctrl_site184]	9.75 ± 0.41
AGCAAAACAAAAAAATTAAAATTAACATATAATCAT [GTGCAC_negctrl_site393]	8.66 ± 0.57
AATAAGAGGATACATTGTACATAAAAAAAAAAAATA [XGTACX_site1815]	8.78 ± 0.55
